Each structure is given as a SMILES string. Hit rate of the full screen: of about 39,000 compounds, about 220 (0.56%) showed activity. Some of the results follow.
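Further: static incubation at 37 °C against the wild-type strain, values averaged over two biological replicates.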

This assay concerns Escherichia coli K-12 BW25113. Kind of assay: relative growth (OD600 normalised to plate interquartile mean) (fraction); higher = less growth inhibition, active = 0.2 or less. Conditions: 50 µM; LB; incubation time: overnight (16-24 h).
On to `C[C@H](CO)N1C[C@H](C)[C@H](CN(C)S(=O)(=O)c2cn(C)cn2)Oc2cc(C#Cc3ccccc3)ccc2S1(=O)=O`, for which the relative growth is inactive: 0.994.
Take `C[C@@H]1CCCCO[C@@H](CN(C)C(=O)c2ccccc2)[C@H](C)CN([C@@H](C)CO)C(=O)c2cc(NC(=O)CCC(F)(F)F)ccc2O1`: the relative growth is inactive: 0.886.
The result for `COc1ccc(S(=O)(=O)Nc2ccc3c(c2)C(=O)N([C@@H](C)CO)C[C@@H](C)[C@H](CN(C)C(=O)c2ccccc2)OCCCC[C@@H](C)O3)cc1` reads inactive: 1.02.
Turning to `C[C@H](O)CC1=C[C@H](O)[C@@H](C)OC1=O`, the relative growth is inactive: 1.01.
For `C[C@@H]1CN([C@@H](C)CO)S(=O)(=O)c2ccc(C#CCN(C)C)cc2O[C@H]1CN(C)Cc1ccc2c(c1)OCO2` the value was inactive: 1.01; for `C=CCC[C@H](Cc1ccc(F)cc1)C(=O)OC[C@@H](NC(=O)[C@@H](CC=C)CC(=O)N(CCO)Cc1ccccc1)C(C)(C)C`, inactive: 1.05; for `CC(C)NC(=O)N(C)C[C@H]1OCCCC[C@@H](C)Oc2ccc(NC(=O)Nc3ccc(F)cc3)cc2C(=O)N([C@H](C)CO)C[C@@H]1C`, inactive: 0.98.
The result for `COCC(=O)N(C)C[C@@H]1Oc2cc(C#C[C@H](C)O)ccc2S(=O)(=O)N([C@@H](C)CO)C[C@H]1C` reads inactive: 0.992.
In the case of `C[C@H]1CCCCO[C@@H](CN(C)Cc2ccc(C(F)(F)F)cc2)[C@@H](C)CN([C@@H](C)CO)C(=O)c2cc(NC(=O)NC3CCCCC3)ccc2O1`, the relative growth was inactive: 1.
The result for `C[C@@H]1CN([C@@H](C)CO)C(=O)CCCn2nncc2CO[C@H]1CN(C)S(=O)(=O)c1ccc2c(c1)OCCCO2` reads inactive: 0.985.
On to `NNC(=O)C1[C@H]2CCCC[C@@H]12` (some centres undefined), for which the relative growth was inactive: 1.02.
The result for `C[C@@H]1CN([C@H](C)CO)C(=O)c2cc(NC(=O)C3CCCCC3)ccc2O[C@@H](C)CCCCO[C@@H]1CN(C)C(=O)Nc1cccc2ccccc12` reads inactive: 0.991.
For `C[C@@H]1CN([C@@H](C)CO)C(=O)c2cccc(NS(=O)(=O)c3ccc(F)cc3)c2O[C@H]1CN(C)S(=O)(=O)c1ccc(F)cc1` the value was inactive: 1; for `C[C@H](CO)N1C[C@H](C)[C@@H](CN(C)C(=O)Nc2ccc3c(c2)OCO3)Oc2ccc(NC(=O)C3CC3)cc2CC1=O`, inactive: 1; for `COCC#Cc1ccc([C@@H]2[C@H](CO)N3C(=O)CN(C(=O)C4CCOCC4)C[C@@H]23)cc1`, inactive: 0.959.
The result for `CC(C)NC(=O)N(C)C[C@H]1OCCCC[C@H](C)Oc2ccc(NC(=O)Nc3cccc4ccccc34)cc2C(=O)N([C@H](C)CO)C[C@@H]1C` reads inactive: 1.05; that for `Cn1cnc(S(=O)(=O)N[C@@H]2CC[C@H](CC(=O)Nc3ccccc3)O[C@@H]2CO)c1`, inactive: 0.983; that for `C[C@H](CO)N1C[C@H](C)[C@@H](CN(C)S(=O)(=O)c2cn(C)cn2)Oc2cc(Br)ccc2S1(=O)=O`, inactive: 1.02.
Take `COc1ccc(S(=O)(=O)Nc2ccc3c(c2)C(=O)N([C@@H](C)CO)C[C@H](C)[C@H](CN(C)Cc2ccncc2)O3)cc1`: the relative growth is inactive: 0.998.
`C[C@H]1CN([C@@H](C)CO)C(=O)c2cc(NC(=O)CCN3CCOCC3)ccc2O[C@@H]1CN(C)Cc1ccccc1`: the relative growth was inactive: 1.01.
For `CCS(=O)(=O)N1C[C@]2(C1)CN([C@H](CO)c1[nH]c3cc(ccc3c12)OC)S(=O)(=O)c1cn(cn1)C` the value was inactive: 1.03; for `CCC=CCC=CCC=CCC=CCC=CCC=CCCC(=O)O`, inactive: 1.06.
Turning to `C[C@@H]1CN([C@H](C)CO)C(=O)c2cc(NC(=O)NC3CCCCC3)ccc2O[C@@H](C)CCCCO[C@@H]1CN(C)Cc1ccccc1`, the relative growth is inactive: 0.997.
On to `O=C(CN1CCOCC1)NCC[C@H]1CC[C@H](NC(=O)Nc2ccccc2)[C@H](CO)O1`, for which the relative growth is inactive: 1.
For `C[C@H]1CN([C@@H](C)CO)S(=O)(=O)c2ccc(Br)cc2O[C@@H]1CN(C)C(=O)Cc1ccccc1` the value was inactive: 1.02; for `COc1ccc(NC(=O)Nc2ccc3c(c2)CC(=O)N([C@H](C)CO)C[C@@H](C)[C@H](CN(C)Cc2ccc(-c4ccccc4)cc2)O3)cc1`, inactive: 1.
For `C[C@H]1CN([C@@H](C)CO)S(=O)(=O)c2ccc(C#Cc3ccncc3)cc2O[C@H]1CN(C)C(=O)Nc1ccc2c(c1)OCO2` the value was inactive: 1.02; for `C[C@@H]1CCCCO[C@@H](CN(C)C(=O)CCCN(C)C)[C@H](C)CN([C@H](C)CO)C(=O)c2cc(NC(=O)Nc3ccc(F)cc3)ccc2O1`, inactive: 1.01.
The result for `CC1=C2C(O)C(=O)OC3CC4C(C)(C)C(=O)C=CC4(C)C(CC1)C23C` (centres undefined) reads inactive: 1.01.
As for `CC(=O)NCCCC[C@@H]1NC(=O)[C@H]2C[C@@H](C(=O)O)[C@@H](c3ccc(O)cc3)N2C1=O`, the relative growth was inactive: 1.03.
With `COc1cc(Nc2nc3ccccc3nc2NS(=O)(=O)c2ccc(NC(=O)c3ccc(C)c(OC)c3)cc2)cc(OC)c1`, the relative growth is inactive: 1.05.
For `Cc1ccc(-c2cnc3c(c2)C(=O)N([C@@H](C)CO)C[C@H](C)[C@H](CN(C)C(=O)Cc2cccnc2)O3)cc1` the value was inactive: 0.981; for `CC(=O)n1cc([C@H]2C=C(C(=O)NCc3ccccc3)O[C@@H](OCc3ccc(CO)cc3)C2)c2ccccc21`, inactive: 1.02.
For `C[C@@H]1CN([C@@H](C)CO)C(=O)Cc2cc(NC(=O)Nc3ccc(C(F)(F)F)cc3)ccc2O[C@H]1CN(C)Cc1ccc(-c2ccccc2)cc1`, the relative growth was inactive: 1.02.
The result for `C[C@@H]1CCCCO[C@H](CN(C)C(=O)Nc2ccc3c(c2)OCO3)[C@@H](C)CN([C@@H](C)CO)C(=O)c2cc(NC(=O)c3ccccc3)ccc2O1` reads inactive: 1.03.
For `C[C@H]1CN([C@@H](C)CO)C(=O)c2cc(NC(=O)Nc3ccc(C(F)(F)F)cc3)ccc2O[C@H]1CN(C)C(=O)Nc1ccc(F)cc1`, the relative growth was inactive: 1.
For `C[C@@H]1CN([C@@H](C)CO)C(=O)Cc2cc(NC(=O)Cn3cnnn3)ccc2O[C@@H]1CN(C)Cc1ccc(C(=O)O)cc1` the value was inactive: 0.969.
The result for `CN(C)CC(=O)N[C@@H]1CC[C@H](CC(=O)O)O[C@@H]1CO` reads inactive: 0.991.
For `COc1ccc(S(=O)(=O)N(C)C[C@H]2Oc3ccc(NS(=O)(=O)c4cn(C)cn4)cc3C(=O)N([C@H](C)CO)C[C@@H]2C)cc1` the value was inactive: 0.963.

Source of the values: the supplement of paper PMC9446081.
